Laboratory results as given in PubChem BioAssay AID686979 (National Center for Advancing Translational Sciences (NCATS), 2013).
Several values for one entry are separate records, joined by “and”; a condition that tells them apart may be missing. Equal values may be shown once. Among all 420,000 compounds or so, about 50,000 (12%) were called active. Inconclusive means that the source gave no clear call. Such entries were picked first, then a sample of the others. The call rests on the fitted dose curve; in most records, active means well fitted inhibition curve with a large enough effect; inconclusive means small, poorly fitted or top-dose-only effect; inactive means flat fitted curve, though single readings scatter. A potency beside an inconclusive call is a rough fit, not a confirmed value.
On the % scale 0 is the no-effect control and ±100 the full control effect; potency means the concentration at half of the fitted maximal effect; tags describe the fitted curve by direction and shape.

Assay: qHTS for Inhibitors of human tyrosyl-DNA phosphodiesterase 1 (TDP1): qHTS in cells in presence of CPT; further: nearly all actives have a fitted effect of over 55% in size
Settings: chicken DT40 Tdp1-/-;hTDP1 cells + 20 nM CPT, ATP luminescence, 48 h; activity change, negative = growth inhibition: at 46.2 µM (top of the series) unless noted
In short: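 Chicken DT40 Tdp1-/- cells stably complemented with human TDP1 were seeded at 400 cells/well in medium containing 20 nM camptothecin, exposed to pin-transferred compounds, and grown at 37 °C for at least 48 hr. Viability was read as ATP luminescence.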
With O=C(CN1CCN(c2ccccc2O)CC1)Nc1ccc([N+](=O)[O-])cc1Br the Potency was inconclusive: 20.6 µM [inhibitor, partial curve, poor fit].
In the case of COC(=O)c1cc(NC(=O)c2cc3c(-c4ccccc4F)nn(C)c3s2)cc(C(=O)OC)c1, the Potency is reported as active: 3.26 µM.
With O=C(COc1ccccc1)Nc1nc2c(s1)CCCC2 the Potency was inconclusive: 7.31 µM [inhibitor, partial curve].
In the case of COC(=O)c1cccc(CN2C(=O)C(C)Oc3ccc(C)cc32)c1 (configuration not stated), the Potency is reported as active: 20.6 µM.
In the case of O=C(Cn1cc(F)c(=O)[nH]c1=O)NCCO, the “activity change, negative = growth inhibition” value is reported as inactive: -2.18%.
In the case of Cc1ccccc1NC(=O)c1cc(S(=O)(=O)c2ccccc2)ccc1Cl, the Potency is reported as inconclusive: 0.58 µM [inhibitor, full curve, poor fit].
With Cc1ccc(-n2c(C)cc(/C=N/NC(=O)CC3(C)OCCO3)c2C)cc1 the Potency was inconclusive: 12.6 µM [inhibitor, partial curve, poor fit].
For COC(=O)C1CCN(c2nc3ccccc3nc2C(C#N)C(=O)NCCc2ccccc2)CC1 (configuration not stated), the Potency was inconclusive: 29.1 µM [inhibitor, single point].
For COc1ccc(S(=O)(=O)N(C)CC(=O)Nc2ccccc2OC)cc1C, the Potency was inconclusive: 23.1 µM [inhibitor, partial curve].
For O=C(CCN=C1NS(=O)(=O)c2ccccc21)NCc1ccccc1F, the “activity change, negative = growth inhibition” value was inactive: 7.64%.
With C[N+](C)(C)CCOC(=O)C1(c2ccccc2)CCCC1 the “activity change, negative = growth inhibition” value was inactive: -29.3%.
With Cc1c(Cl)cccc1Nc1nn2c(=O)c3ccccc3nc2s1 the Potency was inconclusive: 8.2 µM [inhibitor, partial curve].
With O=C(Nc1ccc2oc(-c3cccnc3)nc2c1)c1ccc([N+](=O)[O-])o1 the Potency was active: 6.51 µM.
For CCOC(=O)c1ccc(NC(=O)CN2C(=O)NC3(CCCCCCC3)C2=O)cc1, the Potency was active: 14.6 µM.
For CCOC(=O)c1ccc(N2CCOCC2)c(NS(=O)(=O)c2ccc(F)cc2)c1, the “activity change, negative = growth inhibition” value was inactive: -19.7%.
With COc1ccccc1CNC(=O)CC(c1ccc(F)cc1)N1Cc2ccccc2C1=O (configuration not stated) the Potency was inconclusive: 25.9 µM [inhibitor, single point].
For N#C/C(=C\C=C\c1ccccc1[N+](=O)[O-])C(=O)NCc1ccccc1, the Potency was active: 4.61 µM.
In the case of Cc1cccc(N2CCN(S(=O)(=O)c3ccc(-c4cnc(C5CC5)o4)cc3)CC2)c1C, the Potency is reported as active: 18.4 µM.
For Cc1ccc(Cn2c(SCC(=O)NCc3ccccc3)nc3ccsc3c2=O)cc1, the Potency was inconclusive: 25.9 µM [inhibitor, single point].
With Cc1cccc(-n2c(SC(C)C(=O)O)nc3sc4c(c3c2=O)CCCC4)c1 (configuration not stated) the activity change, negative = growth inhibition was inconclusive: -34.7% [inhibitor].
For O=[N+]([O-])c1ccccc1CN1CCN(S(=O)(=O)c2ccccc2)CC1, the Potency was inconclusive: 14.6 µM [inhibitor, partial curve].
For CCOC(=O)c1c(-c2cccc([N+](=O)[O-])c2)csc1NC(=O)C1CCCCC1, the Potency was inconclusive: 29.1 µM [inhibitor, single point].
With Cc1ccc(/C=N/NC(=O)c2cc(-c3cccnc3)nc3ccccc23)cc1 the Potency was active: 2.06 µM.
With CCOCC(=O)N(CC)Cc1ccccc1 the Potency was inconclusive: 25.9 µM [inhibitor, single point].
In the case of CCc1cc2c(=O)n(CCC(C)C)c(=S)[nH]c2s1, the Potency is reported as inconclusive: 23.1 µM [inhibitor, single point].
With CCNC(=O)C1(C)CCCN(Cc2ccccc2-c2ccccc2)C1 (configuration not stated) the Potency was inconclusive: 29.1 µM [inhibitor, single point].
In the case of CCOc1ccc(NC(=O)Cn2c(=O)n(CCCC(=O)NCCc3ccc(Cl)cc3)c(=O)c3ccccc32)cc1, the Potency is reported as inconclusive: 29.1 µM [inhibitor, single point].
With O=C(NCc1ccccc1)C(C1CC1)n1c(CSCCOc2ccccc2)nc2ccccc21 (configuration not stated) the Potency was inconclusive: 20.6 µM [inhibitor, single point].
For COc1ccc(-c2[nH]c(-c3ccc(O)cc3)nc2-c2ccccc2)cc1, the Potency was active: 14.6 µM.
With O=C(CCl)NC(Cc1ccccc1)C(=O)OCC(=O)c1ccc(-c2ccccc2)cc1 (configuration not stated) the Potency was inconclusive: 29.1 µM [inhibitor, single point].
In the case of CN(C)S(=O)(=O)c1ccc2c(c1)nc(CCC(=O)NCCc1ccc(Cl)cc1)n2C, the Potency is reported as inconclusive: 25.9 µM [inhibitor, single point].
For Cc1oc(-c2ccccc2F)nc1CS(=O)(=O)CC(=O)N1CCN(c2ccccc2)CC1, the Potency was “inactive and inconclusive: 23.1 µM [inhibitor, single point]”.
In the case of CC(C)Nc1nc(-c2ccccc2)nnc1-c1ccccc1, the Potency is reported as inconclusive: 29.1 µM [inhibitor, single point].
In the case of CCOC(=O)c1cc(C#N)c(NCc2ccccc2)nc1C, the “activity change, negative = growth inhibition” value is reported as inactive: -28.1%.
With CCOC(=O)c1cccc(NC(=O)C(C)n2nc(C)c3c(C)n(-c4ccccc4)nc3c2=O)c1 (configuration not stated) the Potency was inconclusive: 23.1 µM [inhibitor, single point].
With CCOC(=O)N1CCN(C(=O)C[C@@H]2C[C@@]3(C(=O)OC)CCCCC=C3N(Cc3ccc4c(c3)OCO4)C2=O)CC1 the Potency was inconclusive: 29.1 µM [inhibitor, single point].
With CC(C)CNC(=O)CC(=O)N/N=C/c1cccs1 the “activity change, negative = growth inhibition” value was inactive: -20%.
With Oc1ccc(/C=N/Nc2ccc(Cl)nn2)cc1O the Potency was inconclusive: 5.8 µM [inhibitor, partial curve].
In the case of Cc1ccc(CNC(=O)c2cc(-c3ccccc3)nn2Cc2cc(C)no2)cc1, the Potency is reported as inconclusive: 29.1 µM [inhibitor, partial curve, poor fit].
With COc1ccc(C(C)(O)c2nc(-c3cnc4ccccc4c3)cs2)cc1 (configuration not stated) the Potency was inconclusive: 20.6 µM [inhibitor, single point].
In the case of CCN(CC)c1ccc(NC(=O)CNCc2ccccc2Cl)c(C)c1, the Potency is reported as inconclusive: 29.1 µM [inhibitor, single point].
With COc1ccc(CCNC(=O)COC(=O)c2cc(=O)[nH]c3ccccc23)cc1 the “activity change, negative = growth inhibition” value was inactive: -16.3%.
With C[C@H](O)[C@@H]1CN2CCc3c([nH]c4ccccc34)[C@@H]2C[C@@H]1N(C)C(=O)Nc1ccc(Br)cc1 the Potency was inconclusive: 29.1 µM [inhibitor, single point].
In the case of CC(C)C[C@@H]1COc2cccc(N3CCSCC3)c2S(=O)(=O)N1, the “activity change, negative = growth inhibition” value is reported as inactive: -13.7%.
In the case of COc1ccc(NC(=O)Cn2c(=O)n(CCc3ccccc3)c(=O)c3ccccc32)cc1, the “activity change, negative = growth inhibition” value is reported as inactive: -26.6%.
For Cc1ccccc1OCC(=O)Nc1cc(-c2cccc(Br)c2)nn1-c1ccccc1, the Potency was inconclusive: 29.1 µM [inhibitor, single point].
In the case of Cc1ccccc1Oc1ccc2c(c1)[C@@H]1C[C@H](N(C)C(=O)Nc3cc(Cl)cc(Cl)c3)[C@H]([C@H](C)O)C(=O)N1CC2, the Potency is reported as inconclusive: 29.1 µM [inhibitor, single point].
In the case of Cn1c(/C(C#N)=C/c2ccc(O)cc2)nc2ccccc21, the Potency is reported as inconclusive: 5.8 µM [inhibitor, single point].
With Cc1cccc(C)c1-n1nnnc1C(c1ccnc2ccccc12)N(CCN(C)C)Cc1ccccc1 (configuration not stated) the Potency was inconclusive: 25.9 µM [inhibitor, single point].
With COc1ccccc1NS(=O)(=O)c1cccc(C(=O)N2CCCCCCC2)c1 the Potency was inconclusive: 16.4 µM [inhibitor, single point].
With CCN(CC)CCN(C(=O)Cn1nnc(-c2ccc(C)o2)n1)C(C(=O)NC(C)(C)C)c1cccs1 (configuration not stated) the “activity change, negative = growth inhibition” value was inactive: 4.43%.
In the case of COc1cccc(-n2nc(C(=O)N3CCN(Cc4ccccc4)CC3)c3ccccc3c2=O)c1, the Potency is reported as active: 20.6 µM.
In the case of CCCCNC(=O)c1c(C)oc2ncn(CC(C)C)c(=O)c12, the “activity change, negative = growth inhibition” value is reported as inactive: -25.8%.
In the case of CCOC(=O)N/N=C/c1cn(Cc2ccc(Cl)cc2)c2ccccc12, the Potency is reported as inconclusive: 25.9 µM [inhibitor, partial curve].
For Cc1cccc(NC(=O)c2ccccc2SCc2ccc(F)cc2)n1, the Potency was inconclusive: 14.6 µM [inhibitor, partial curve].
For COc1ccc(C(=O)N(Cc2ccco2)Cc2ccco2)cc1, the Potency was inconclusive: 18.4 µM [inhibitor, single point].
In the case of COc1cc2c(cc1OC)CN(C(=O)CSc1nc(N)c(C#N)cc1C#N)CC2, the activity change, negative = growth inhibition is reported as inconclusive: -30.1% [inhibitor].
For CC1CCCC(NC(=O)COC(=O)/C=C/c2ccco2)C1C (configuration not stated), the Potency was inconclusive: 29.1 µM [inhibitor, single point].
In the case of C=CCSc1nc(N)c(C(=O)Nc2ccccc2OC)cc1C(=O)Nc1ccccc1, the Potency is reported as active: 8.2 µM.
In the case of Nc1c(-c2nc(-c3ccncc3)no2)nnn1CC(=O)Nc1ccccc1, the Potency is reported as inconclusive: 29.1 µM [inhibitor, single point].
For Cc1c(NC(=O)CN2C(=O)NC(C)(c3ccc(Cl)cc3)C2=O)c(=O)n(-c2ccccc2)n1C (configuration not stated), the “activity change, negative = growth inhibition” value was inactive: 4.61%.
With Cc1noc(/C=C/c2ccccc2F)c1S(=O)(=O)N1CCC(C(=O)N(C)Cc2ccco2)CC1 the Potency was inconclusive: 29.1 µM [inhibitor, single point].
In the case of Cc1cccc(NC(=S)NCc2cccn2C)c1, the activity change, negative = growth inhibition is reported as inconclusive: -32.7% [inhibitor].
In the case of Cc1ccccc1CN1C(=O)c2ccccc2Sc2ccc(C(=O)NCc3cccs3)cc21, the Potency is reported as active: 23.1 µM.
With Cc1ccc(S(=O)(=O)N2CCCCC2)cc1NC(=O)c1ccco1 the “activity change, negative = growth inhibition” value was inactive: -12.3%.
For CCOC(=O)C1=CCCN(S(=O)(=O)c2ccc(C)cc2)C1, the Potency was inconclusive: 18.4 µM [inhibitor, partial curve].
For COc1ccc(CNc2ccnc(-c3cccc(NS(C)(=O)=O)c3)n2)c(OC)c1, the Potency was inconclusive: 29.1 µM [inhibitor, single point].
